Among all 150,000 compounds or so, about 6,500 (4.3%) were called active. Inconclusive means that the source gave no clear call. Such entries were picked first, then a sample of the others. Calls follow the shape of the dose curve; as a rule, active = well fitted inhibition curve with a large enough effect (not every such curve was filed as active); inconclusive = small, poorly fitted or top-dose-only effect, or another doubt; inactive = no such curve, though single readings can be large or run the other way. No potency is given beside an inconclusive call; the fits are too rough.
The molecules below were run against 15-hydroxyprostaglandin dehydrogenase [NAD(+)] (Homo sapiens) (UniProt P15428) (assay: qHTS Assay for Inhibitors of HPGD (15-Hydroxyprostaglandin Dehydrogenase)). Details: purified HPGD, NADH fluorescence kinetic, PGE2 substrate; activity change, negative = inhibition: active compounds read low.
Chain of UniProt P15428 (P15428 whole entry, looked up): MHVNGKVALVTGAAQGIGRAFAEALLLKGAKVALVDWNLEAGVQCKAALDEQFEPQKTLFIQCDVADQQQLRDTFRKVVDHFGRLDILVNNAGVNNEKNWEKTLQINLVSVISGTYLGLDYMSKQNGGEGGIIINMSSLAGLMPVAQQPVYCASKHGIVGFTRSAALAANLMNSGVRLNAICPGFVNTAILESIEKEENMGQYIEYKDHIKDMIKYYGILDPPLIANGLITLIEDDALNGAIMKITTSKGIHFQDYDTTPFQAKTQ
Procedure, shortened: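 20 nM HPGD preincubated 15 min at room temperature with compound in 50 mM Tris-HCl pH 8, 0.01% Tween 20. Started with 1 mM NAD+ and 30 uM prostaglandin E2; NADH fluorescence (360/450 nm) read 5 times over 30-s intervals, last minus first.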
`O=C(CSc1nc2ccccc2o1)c1cc2ccccc2oc1=O` was tested, and the activity change, negative = inhibition was inactive: -6%. For `Nc1ccc2nc(-c3ccc(Cl)cc3)[nH]c2c1`, the Potency was inconclusive [inhibitor, partial curve]. With `Cc1cccc2c(C(=O)n3cccn3)cc(-c3ccccc3Cl)nc12` the Potency was inconclusive [inhibitor, partial curve]. With `O=C1CC(C(=O)N2CCN(c3ccc(F)cc3)CC2)CN1CCc1ccccc1` (configuration not stated) the activity change, negative = inhibition was inactive: -7.33%. `CN(C)S(=O)(=O)Nc1ccccc1C(N)=O` was tested, and the Potency was inconclusive [inhibitor, partial curve]. For `CC(=O)Nc1c(OC(C)=O)ccc2c(C)cc(=O)oc12`, the Potency was inconclusive [inhibitor, partial curve]. With `CCCCC(=O)Nc1ccc2oc(-c3ccncc3)nc2c1` the Potency was inconclusive [inhibitor, single point]. `O=c1cc(C(F)(F)F)nc(-c2ccccc2)[nH]1` was tested, and the Potency was active: 14.1 µM. For `O=C(CCN1CCN(C(c2ccccc2)c2ccccc2)CC1)N/N=C/c1ccc(O)cc1`, the activity change, negative = inhibition was inactive: -2.19%. `O=C1C2=C(S[C@@H]3O[C@H](CO)[C@@H](O)[C@H](O)[C@H]3O2)C(=O)c2ccccc21` was tested, and the Potency was inconclusive [inhibitor, partial curve]. For `CCSC1=N/C(=C\c2ccc(C(=O)O)cc2)C(=O)S1`, the activity change, negative = inhibition was inactive: -23.9%. `Cc1ccccc1NC(=O)CN1C(=O)C2C3CC(C(Br)C3Br)C2C1=O` (configuration not stated) was tested, and the Potency was active: 14.1 µM. `O=C(Nc1ccc2c(c1)CCC2)c1ccc(Br)o1` was tested, and the activity change, negative = inhibition was inactive: -23.9%. For `CCOC(=O)c1cc(-c2ccco2)nc2c1c(C)nn2CCC#N`, the Potency was inconclusive [inhibitor, partial curve]. For `O=c1[nH]c(SCc2nc3c(cnn3-c3ccccc3)c(=O)[nH]2)nc2ccccc12`, the Potency was active: 0.794 µM. For `Cc1ccsc1-c1ccnc(-n2cccc2)n1`, the Potency was inconclusive [inhibitor, partial curve]. `COc1cc(NC(=O)c2cc(-c3ccco3)on2)c(OC)cc1Cl` was tested, and the Potency was inconclusive [inhibitor, partial curve]. `COc1ccc(-n2cc(-c3ccccc3)nc2SC)cc1` was tested, and the activity change, negative = inhibition was inactive: -19.7%. In the case of `CCOc1ccc(Cn2nnc(C(=O)Nc3cc(OC)cc(OC)c3)c2N)cc1`, the Potency is reported as inconclusive [inhibitor, single point]. `O=c1oc2c(CN3CCCCC3)c(O)ccc2c2c1CCCCC2` was tested, and the Potency was inconclusive [inhibitor, partial curve]. `Cc1nc2c(C(=O)N3CCCC3)cnn2c(C)c1Cc1c(F)cccc1Cl` was tested, and the Potency was inconclusive [inhibitor, partial curve]. `CCOc1ccc(OCC)c(NC(=O)CCCN2C(=S)NC(C)(C)CC2C)c1` (configuration not stated) was tested, and the activity change, negative = inhibition was inactive: -6.65%. In the case of `CC(=O)Nc1ccc2nc(-c3ccccc3)cn2c1`, the Potency is reported as inconclusive [inhibitor, partial curve]. In the case of `COc1ccc(N(C(=O)COc2ccccc2)C2C=CS(=O)(=O)C2)cc1` (configuration not stated), the activity change, negative = inhibition is reported as inactive: -3.57%. In the case of `CCS(=O)(=O)N1CCN(c2ccc(C(=O)NC3C4CC5CC(C4)CC3C5)cc2[N+](=O)[O-])CC1` (configuration not stated), the activity change, negative = inhibition is reported as inactive: -1.19%. With `CCOC(=O)c1ccccc1NC(=O)c1cn(-c2ccc(OC)cc2)c(=O)c2ccccc12` the Potency was inconclusive [inhibitor, partial curve]. For `COc1ccc(C2OC(=O)c3ccccc3S2)cc1` (configuration not stated), the Potency was inconclusive [inhibitor, single point]. With `Cc1c(N=Cc2nc3ccccc3[nH]2)c(=O)n(-c2ccccc2)n1C` the activity change, negative = inhibition was inactive: -22.9%. For `Nc1cc(-c2nn[nH]n2)ccc1F`, the activity change, negative = inhibition was inactive: -16.4%. In the case of `CCCn1c(=O)c2c(C(F)(F)F)cc(-c3ccco3)nc2n(CCC)c1=O`, the Potency is reported as inconclusive [inhibitor, partial curve]. For `Cc1cccc(CSc2nnc(-c3ccccn3)n2N)c1`, the Potency was inconclusive [inhibitor, partial curve]. In the case of `CC(C)CC(=O)NCCCCc1ccccc1`, the Potency is reported as active: 15.8 µM. In the case of `Cc1ccc(NN=Nc2nc3c([nH]2)c(=O)n(C)c(=O)n3C)cc1`, the Potency is reported as active: 22.4 µM. In the case of `COc1ccc(-c2c(C#N)c(SCC(N)=O)nc3c2CCCC3)cc1`, the activity change, negative = inhibition is reported as inactive: 0.295%. In the case of `Cc1ccc(Cl)cc1N1CCN(C(=O)CN2C(=O)c3cccc4cccc2c34)CC1`, the Potency is reported as inconclusive [inhibitor, single point]. For `Cc1cc(C)c(S(=O)(=O)ON2C(=O)c3ccccc3C2=O)cc1C`, the Potency was inconclusive [inhibitor, partial curve]. For `COc1ccc(CN(C(=O)c2cnccn2)C(C(=O)Nc2ccc(F)cc2)c2ccccc2)cc1` (configuration not stated), the activity change, negative = inhibition was inactive: -8.82%. For `Cc1noc(C)c1CSc1nnc(-c2ccccc2)n1N`, the Potency was active: 20 µM. In the case of `O=C(Cn1cnc2ccccc2c1=O)Nc1nnc(SCc2ccccc2)s1`, the Potency is reported as active: 22.4 µM. With `Cc1nnc(Nc2ccc(C(=O)N3CCOCC3)cc2)c2ccccc12` the Potency was active: 15.8 µM. For `COc1cc2c(cc1NS(=O)(=O)N1CCCCC1)oc1ccccc12`, the Potency was inconclusive [inhibitor, single point]. `COC(=O)c1[nH]c2ccc(C)cc2c1NC(=O)CN1CCN(c2ccc(F)cc2)CC1` was tested, and the Potency was inconclusive [inhibitor, partial curve]. For `CSc1nnc(-c2cc(-c3ccc(C)cc3)nc3ccccc23)o1`, the Potency was inconclusive [inhibitor, partial curve]. In the case of `CC(=O)Oc1cccc2c1C(=O)c1c(OC(C)=O)cc(C(=O)O)cc1C2=O`, the Potency is reported as inconclusive [inhibitor, single point]. `O=C1CC(C(=O)Nc2ccc(C(=O)N3CCOCC3)cc2)C2(CCCCC2)O1` (configuration not stated) was tested, and the Potency was inconclusive [inhibitor, single point]. For `C=CCN(c1ccccc1)S(=O)(=O)c1cccc(C(=O)Nc2nc3ccccc3[nH]2)c1`, the Potency was inconclusive [inhibitor, partial curve]. `CCCC(=O)N1c2ccccc2C(=C2SC(C(=O)OC)=C(C(=O)OC)S2)C(=S)C1(C)C` was tested, and the Potency was inconclusive [inhibitor, partial curve, poor fit].

From PubChem BioAssay AID894 (National Center for Advancing Translational Sciences (NCATS), 2007)
% is scaled to controls: 0 for no effect and ±100 for the full control effect; potency is read from the fitted curve at half-maximal effect; tags tell the direction and shape of the fitted curve.
